Reference: paper PMC6919601, “Identification of Plasmodium dipeptidyl aminopeptidase allosteric inhibitors by high throughput screening” (PLoS ONE, 2019)
About 230 (0.21%) of roughly 110,000 compounds showed an effect of 50% or more. Some of the results follow.

molecular target: DPAP1 (Plasmodium falciparum, UniProt Q8IIJ9); test: primary screen, percent inhibition; read by cleavage of a fluorogenic dipeptide substrate; higher = more effect of the substance; design: species or system P. falciparum D10 trophozoite lysates; single well
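Note: 30 min substrate incubation versus DMSO and 10 µM JCP410 controls.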

DPAP1, sequence (Q8IIJ9 whole entry, looked up): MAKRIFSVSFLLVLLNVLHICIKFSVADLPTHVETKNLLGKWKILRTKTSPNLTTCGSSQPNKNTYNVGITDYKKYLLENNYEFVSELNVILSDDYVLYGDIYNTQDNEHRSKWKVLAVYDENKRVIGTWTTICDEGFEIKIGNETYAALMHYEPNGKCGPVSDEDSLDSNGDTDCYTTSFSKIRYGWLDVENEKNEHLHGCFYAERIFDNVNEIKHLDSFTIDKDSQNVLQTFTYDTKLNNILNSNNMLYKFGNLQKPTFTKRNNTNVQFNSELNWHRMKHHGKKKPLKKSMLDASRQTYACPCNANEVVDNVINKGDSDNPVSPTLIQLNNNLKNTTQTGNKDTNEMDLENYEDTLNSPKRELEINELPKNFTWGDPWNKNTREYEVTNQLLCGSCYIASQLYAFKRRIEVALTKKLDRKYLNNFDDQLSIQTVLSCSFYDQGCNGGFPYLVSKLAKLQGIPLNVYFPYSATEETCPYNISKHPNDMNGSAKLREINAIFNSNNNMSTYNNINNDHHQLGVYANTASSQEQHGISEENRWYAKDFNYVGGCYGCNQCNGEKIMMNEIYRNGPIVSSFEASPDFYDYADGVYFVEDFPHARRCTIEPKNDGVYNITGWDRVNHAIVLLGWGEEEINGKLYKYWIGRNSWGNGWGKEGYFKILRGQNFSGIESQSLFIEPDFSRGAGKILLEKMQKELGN

Structure (SMILES)	% Inhibition @ 10 uM [%]
Cn1c2ccccc2c2nnc(SCC(=O)Nc3nc4ccccc4s3)nc21	0.611
CCCSc1nc(O)cc(=O)n1-c1ccccc1	-3.8
O=C(CN(c1ccc(F)cc1)S(=O)(=O)c1ccccc1)Nc1ccc2ccccc2c1	1.35
COc1cc(OC)c(OC)cc1/C=C1\N=C(c2cc(Br)ccc2OC)OC1=O	3.74
CSc1nn(Cc2ccccc2)c(N)c1S(=O)(=O)c1ccccc1	-3.85
COC(=O)c1cc2nc(-c3cccs3)cc(C(F)(F)F)n2n1	-4.15
COc1ccc(/C=C/c2cc(C(N)=O)c3ccccc3n2)cc1	-2.36
CCOC(=O)c1sc2ccccc2c1S(=O)(=O)N1CCCCC1	-5.52
O=C(NCCC1=CCCCC1)/C(=C/c1ccco1)NC(=O)c1ccccc1	-4.65
CC1(c2ccccc2)CC(C)(C)N(C(=O)CN2CCOCC2)c2ccccc21 (stereo not shown)	-2.97
Cc1c(C)c2cc(Cl)c3c(c2oc1=O)CN(Cc1ccc2c(c1)OCO2)CO3	2.54
COc1ccccc1C/N=C/c1c(O)[nH]c2ccccc12	6.28
Cc1ccccc1-c1nc(CS(=O)CC(=O)NCc2ccccn2)c(C)o1 (stereo not shown)	0.689
CCN(CCN(C)C)Cc1c(F)cccc1F	-3.5
CC(C)(C)NC(=O)Cn1c(-c2nonc2N)nc2ccccc21	-0.305
CCN1CCN(C(c2cccs2)C(C)NC(=O)c2c(F)cccc2F)CC1 (stereo not shown)	-1.08
Cc1ccc(Cc2nc(O)c3nnn(Cn4nnc(-c5ccc(Cl)cc5)n4)c3n2)cc1	3.51
O=C(CN1CCN(c2ccccc2F)CC1)Nc1nc(-c2ccccc2)cs1	-2.98
O=c1c(Nc2ccccc2)nsnc1Nc1ccccc1	-1.63
O=C1Nc2ccc(Br)c3cccc1c23	11.3
COc1ccc(C)cc1N(CC(=O)Nc1ccc(C)cc1C)S(C)(=O)=O	-1.71
O=C(CC(C(=O)O)c1ccccc1)Nc1ccccc1Cl (stereo not shown)	2.48
CC1=C(c2ccc(C(C)C)cc2)S(=O)(=O)N=C1NC1CCCc2ccccc21 (stereo not shown)	2.27

Structure (SMILES)	% Inhibition @ 10 uM [%]
CCC(C)NC(=O)CSCc1nc(-c2cccc(C)c2)oc1C (stereo not shown)	-4.71
Fc1ccccc1CN1CCN(c2ccccc2)CC1	-2.81
CCOc1ccccc1C(=O)Nc1cccc2cccnc12	7.09
O=C(Cn1c(C(F)(F)F)nc2ccccc21)c1ccccc1	-2.32
CC(=O)CCN(Cc1ccccc1)Cc1ccccc1	-6.06
N#Cc1c(N/C=C/C(=O)c2ccco2)sc2c1CCCC2	2.38
Cc1cccc2sc(NC(=O)c3ccco3)nc12	-2.19
CN1CCC(NCCc2ccc(Cl)cc2Cl)CC1	-2.95
Cc1ccc(C(=O)n2nc(-c3ccc(Cl)cc3)nc2NCc2ccco2)cc1	-2.91
Cc1cc(C)c2c(n1)SCC(=O)N2CCCC(=O)NC1CCCCCC1	-6.01
Fc1ccccc1/C=C/c1nc(-c2cccs2)no1	2.57
CCOc1ccc(C2CC(=O)N=C(NC(=O)c3ccc(OC(F)F)cc3)N2)cc1 (stereo not shown)	1.13
O=C1NC(=O)/C(=C/c2cccc(Oc3ccccc3)c2)S1	-2.58
C1CCCC(N2CCOCC2)CCC1	3.19
CC(=O)NS(=O)(=O)c1ccc(NC(=O)c2cccc3ccccc23)cc1	-3.26
Cc1ccc(NC(=O)c2ccc(C(F)(F)F)cc2)cc1O	2.5
Cc1[nH]c2ccccc2c1CN1CCN(c2ccccn2)CC1	15
Clc1nc(N2CCOCC2)nc(N2CCSCC2)n1	-1.85
COc1ccccc1CNC(=O)c1cccc(C(=O)NCc2ccccc2OC)c1	-14.6
CC(=O)c1nn(-c2ccc(Br)cc2)cc1C(=O)c1ccccc1	3.21
Cc1sc(NC(=O)C2C3C=CC(C3)C2C(=O)O)c(C(N)=O)c1-c1ccc(C(C)C)cc1 (stereo not shown)	1.39
COc1ccc(N(CN2C(=O)c3ccccc3C2=O)C(=O)C(F)(F)F)cc1	-2.8
CN(Cc1ccc(Cl)cc1)S(=O)(=O)c1nnc(NC(=O)C(C)(C)C)s1	-1.59

Structure (SMILES)	% Inhibition @ 10 uM [%]
CCOc1ccc(CCNC(=O)CCc2nnc3ccc(N4CCOCC4)nn23)cc1OCC	-5.37
CC(=O)c1sc(NCCOc2ccc(C)cc2)nc1C	-3.96
CC1CCCC(N2CCN(c3cccc(Cl)c3)CC2)C1 (stereo not shown)	-3.6
CC(=O)C1=C(N)OC(C)=C(C#N)C1c1ccc[n+](C)c1 (stereo not shown)	-1.38
COc1ccc(-c2cc(C)no2)cc1S(=O)(=O)NCC(C)c1ccccc1 (stereo not shown)	-11.6
N#CC1=C(N)Oc2cc(O)ccc2C1c1ccc2c(c1)OCO2 (stereo not shown)	-5.28
Oc1cccnc1NC(c1ccc(Cl)cc1)c1ccc2cccnc2c1O (stereo not shown)	-11.3
COc1ccccc1N1CCN(Cc2c(C)[nH]c3ccccc23)CC1	-6.47
C=CCNC(=O)c1c(NC(=O)c2cccs2)sc2c1CCCC2	-5.23
Cc1ccc2nc(-c3ccc(NC(=O)c4ccc(C)c([N+](=O)[O-])c4)cc3)sc2c1	-0.546
CCc1cccc(C)c1NC(=O)c1c(OC)cccc1OC	5.04
Fc1ccccc1N1CCN(Cc2ccc(Br)o2)CC1	-2.7
CCCCSc1nc2c(c(=O)[nH]c(=O)n2C)n1Cc1cccc(C)c1	-2.91
O=C(c1cn(Cc2nc(-c3cccs3)no2)c2ccccc12)C(F)(F)F	-1.72
O=C(NCCCN1CCOCC1)c1ccc(CS(=O)(=O)c2cccc(C(F)(F)F)c2)o1	-1.28
CC1=C(C(=O)NCCN(C)C2CCCCC2)C2(CCCCC2)OC1=O	4.65
COC(=O)c1ccc(CO/N=C(\N)c2nonc2N)cc1	1.03
COc1cccc(CSc2nncn3c2cc2oc(C)cc23)c1	0.0525
c1ccc(N2CCN(Cc3cccc4ccccc34)CC2)cc1	-0.192
Cc1ccccc1C(=O)O/N=C(\N)Cc1cccs1	2.09
COC(=O)c1cc(C)nc2c1c(C)nn2-c1cccc(F)c1	3.36
